Results from paper PMC9911399, “Two distinct binding modes provide the RNA-binding protein RbFox with extraordinary sequence specificity”.
Residue numbers refer to the chain shown, from its start. The list shows a part of the results.

B1: GACGAAA (DNA:RNA)
RNA: GGGAGACCGGAAUUCAGAUUGUCCGACGAAAUUAAAUCCCGUCGUAGCCACCA
DNA 1: CAATCTGAATTCCGGTCTCCC
DNA 2: TGGTGGCTACGACGGGATT
B2: CGCAGGG (DNA:RNA)
RNA: B1 RNA with G25C, A26G, G28A, A29G, A30G, A31G
DNA 1: CAATCTGAATTCCGGTCTCCC
DNA 2: TGGTGGCTACGACGGGATT
B3: CCACCCG (DNA:RNA)
RNA: GGGAGACCGGAAUUCAGAUUGUCCCCACCCGUUAAAUCCCGUCGUAGCCACCA
DNA 1: CAATCTGAATTCCGGTCTCCC
DNA 2: TGGTGGCTACGACGGGATT
B4: UCAUUCA (DNA:RNA)
RNA: B3 RNA with C25U, C28U, C29U, G31A
DNA 1: CAATCTGAATTCCGGTCTCCC
DNA 2: TGGTGGCTACGACGGGATT
B5: CACCGGC (DNA:RNA)
RNA: B3 RNA with C26A, A27C, C29G, C30G, G31C
DNA 1: CAATCTGAATTCCGGTCTCCC
DNA 2: TGGTGGCTACGACGGGATT
B6: CCAUUUU (DNA:RNA)
RNA: B3 RNA with C28U, C29U, C30U, G31U
DNA 1: CAATCTGAATTCCGGTCTCCC
DNA 2: TGGTGGCTACGACGGGATT
B7: ACGGGUU (DNA:RNA)
RNA: B3 RNA with C25A, A27G, C28G, C29G, C30U, G31U
DNA 1: CAATCTGAATTCCGGTCTCCC
DNA 2: TGGTGGCTACGACGGGATT
B8: CUGGCUA (DNA:RNA)
RNA: B3 RNA with C26U, A27G, C28G, C30U, G31A
DNA 1: CAATCTGAATTCCGGTCTCCC
DNA 2: TGGTGGCTACGACGGGATT
B9: GAGCUUU (DNA:RNA)
RNA: B1 RNA with C27G, G28C, A29U, A30U, A31U
DNA 1: CAATCTGAATTCCGGTCTCCC
DNA 2: TGGTGGCTACGACGGGATT
B10: CCACGUU (DNA:RNA)
RNA: B3 RNA with C29G, C30U, G31U
DNA 1: CAATCTGAATTCCGGTCTCCC
DNA 2: TGGTGGCTACGACGGGATT
B11: CCCCGUU (DNA:RNA)
RNA: B3 RNA with A27C, C29G, C30U, G31U
DNA 1: CAATCTGAATTCCGGTCTCCC
DNA 2: TGGTGGCTACGACGGGATT
B12: GAUUCCG (DNA:RNA)
RNA: B3 RNA with C25G, C26A, A27U, C28U
DNA 1: CAATCTGAATTCCGGTCTCCC
DNA 2: TGGTGGCTACGACGGGATT
B13: AGAACUC (DNA:RNA)
RNA: B3 RNA with C25A, C26G, C28A, C30U, G31C
DNA 1: CAATCTGAATTCCGGTCTCCC
DNA 2: TGGTGGCTACGACGGGATT
B14: CAAUAUG (DNA:RNA)
RNA: B3 RNA with C26A, C28U, C29A, C30U
DNA 1: CAATCTGAATTCCGGTCTCCC
DNA 2: TGGTGGCTACGACGGGATT
B15: AUAAGCA (DNA:RNA)
RNA: B3 RNA with C25A, C26U, C28A, C29G, G31A
DNA 1: CAATCTGAATTCCGGTCTCCC
DNA 2: TGGTGGCTACGACGGGATT
B16: AGUUUAG (DNA:RNA)
RNA: B3 RNA with C25A, C26G, A27U, C28U, C29U, C30A
DNA 1: CAATCTGAATTCCGGTCTCCC
DNA 2: TGGTGGCTACGACGGGATT
B17: AAAGUUG (DNA:RNA)
RNA: B3 RNA with C25A, C26A, C28G, C29U, C30U
DNA 1: CAATCTGAATTCCGGTCTCCC
DNA 2: TGGTGGCTACGACGGGATT
B18: GAAAGAU (DNA:RNA)
RNA: B1 RNA with C27A, G28A, A29G, A31U
DNA 1: CAATCTGAATTCCGGTCTCCC
DNA 2: TGGTGGCTACGACGGGATT
B19: UUCCUAU (DNA:RNA)
RNA: B1 RNA with G25U, A26U, G28C, A29U, A31U
DNA 1: CAATCTGAATTCCGGTCTCCC
DNA 2: TGGTGGCTACGACGGGATT
B20: UGGCGCC (DNA:RNA)
RNA: B3 RNA with C25U, C26G, A27G, C29G, G31C
DNA 1: CAATCTGAATTCCGGTCTCCC
DNA 2: TGGTGGCTACGACGGGATT
B21: UUCGUCA (DNA:RNA)
RNA: B1 RNA with G25U, A26U, A29U, A30C
DNA 1: CAATCTGAATTCCGGTCTCCC
DNA 2: TGGTGGCTACGACGGGATT
B22: CUAGAUA (DNA:RNA)
RNA: B1 RNA with G25C, A26U, C27A, A30U
DNA 1: CAATCTGAATTCCGGTCTCCC
DNA 2: TGGTGGCTACGACGGGATT
B23: GCUCCAC (DNA:RNA)
RNA: B3 RNA with C25G, A27U, C30A, G31C
DNA 1: CAATCTGAATTCCGGTCTCCC
DNA 2: TGGTGGCTACGACGGGATT
B24: UGGUGUG (DNA:RNA)
RNA: B3 RNA with C25U, C26G, A27G, C28U, C29G, C30U
DNA 1: CAATCTGAATTCCGGTCTCCC
DNA 2: TGGTGGCTACGACGGGATT
B25: GCUGUAU (DNA:RNA)
RNA: B1 RNA with A26C, C27U, A29U, A31U
DNA 1: CAATCTGAATTCCGGTCTCCC
DNA 2: TGGTGGCTACGACGGGATT
B26: AUAGAAG (DNA:RNA)
RNA: B1 RNA with G25A, A26U, C27A, A31G
DNA 1: CAATCTGAATTCCGGTCTCCC
DNA 2: TGGTGGCTACGACGGGATT
B27: CAGCUGA (DNA:RNA)
RNA: B3 RNA with C26A, A27G, C29U, C30G, G31A
DNA 1: CAATCTGAATTCCGGTCTCCC
DNA 2: TGGTGGCTACGACGGGATT
B28: CUUCAUC (DNA:RNA)
RNA: B3 RNA with C26U, A27U, C29A, C30U, G31C
DNA 1: CAATCTGAATTCCGGTCTCCC
DNA 2: TGGTGGCTACGACGGGATT
B29: CCUUGUC (DNA:RNA)
RNA: B3 RNA with A27U, C28U, C29G, C30U, G31C
DNA 1: CAATCTGAATTCCGGTCTCCC
DNA 2: TGGTGGCTACGACGGGATT
B30: CCCAGAU (DNA:RNA)
RNA: B3 RNA with A27C, C28A, C29G, C30A, G31U
DNA 1: CAATCTGAATTCCGGTCTCCC
DNA 2: TGGTGGCTACGACGGGATT
B31: ACGGUUA (DNA:RNA)
RNA: B1 RNA with G25A, A26C, C27G, A29U, A30U
DNA 1: CAATCTGAATTCCGGTCTCCC
DNA 2: TGGTGGCTACGACGGGATT

Biological target: T1, RBFOX1 RRM (Homo sapiens, UniProt Q9NWB1 109-208)
T1 sequence: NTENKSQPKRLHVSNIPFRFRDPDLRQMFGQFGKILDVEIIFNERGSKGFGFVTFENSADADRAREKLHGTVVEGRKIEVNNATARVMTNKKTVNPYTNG
Test: EMSA; HiTS-Eq, 1 nM pool, 10 min; buffer printed only for the single-RNA assays: 10 mM Tris pH 7.5, 150 mM NaCl, 3.4 mM EDTA, 0.001% NP-40, 30 C
Conditions: tags: His6 N-terminal (pET28a); label: 5' 32P
In short: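 Purified RbFox RRM (wild type or mutant) was equilibrated for 10 min in 50 µL with 1 nM of a 5′-radiolabelled pool of RNA with 7 randomized nucleotides, its flanks annealed to DNA oligonucleotides, across increasing protein concentrations. Free RNA was separated by 8% native PAGE, excised, reverse-transcribed, PCR-barcoded and sequenced on an Illumina HiSeq 2500. Relative association constants came from read-count changes of each variant against the control reaction, normalised to the cognate motif.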

Compared with B1, B2 is lower in binding signal: 0.00739 KA relative to UGCAUGU for the first, 0.00445 KA relative to UGCAUGU for the second.

Compared with B3, B4 is lower in binding signal: 0.00527 KA relative to UGCAUGU for the first, 0.00233 KA relative to UGCAUGU for the second.

First: B5
Second: B6
The binding signal of the first is higher: 0.00645 KA relative to UGCAUGU for the first, 0.00144 KA relative to UGCAUGU for the second.

First: B7
Second: B8
The binding signal of the first is higher: 0.0214 KA relative to UGCAUGU for the first, 0.0161 KA relative to UGCAUGU for the second.

Compared with B9, B10 is lower in binding signal: 0.0151 KA relative to UGCAUGU for the first, 0.00237 KA relative to UGCAUGU for the second.

First: B11
Second: B12
The binding signal of the first is lower: 0.00507 KA relative to UGCAUGU for the first, 0.0143 KA relative to UGCAUGU for the second.

Compared with B13, B14 is higher in binding signal: 0.0032 KA relative to UGCAUGU for the first, 0.00514 KA relative to UGCAUGU for the second.

First: B15
Second: B16
The binding signal of the first is lower: 0.00563 KA relative to UGCAUGU for the first, 0.00997 KA relative to UGCAUGU for the second.

Compared with B17, B18 is lower in binding signal: 0.0113 KA relative to UGCAUGU for the first, 0.0107 KA relative to UGCAUGU for the second.

First: B19
Second: B20
The binding signal of the first is lower: 0.00415 KA relative to UGCAUGU for the first, 0.019 KA relative to UGCAUGU for the second.

Compared with B21, B22 is lower in binding signal: 0.00715 KA relative to UGCAUGU for the first, 0.00632 KA relative to UGCAUGU for the second.

First: B23
Second: B24
The binding signal of the first is lower: 0.00389 KA relative to UGCAUGU for the first, 0.029 KA relative to UGCAUGU for the second.

First: B25
Second: B26
The binding signal of the first is higher: 0.013 KA relative to UGCAUGU for the first, 0.00586 KA relative to UGCAUGU for the second.

Compared with B27, B28 is lower in binding signal: 0.01 KA relative to UGCAUGU for the first, 0.00151 KA relative to UGCAUGU for the second.

First: B29
Second: B30
The binding signal of the first is higher: 0.00915 KA relative to UGCAUGU for the first, 0.00621 KA relative to UGCAUGU for the second.

With B31 the binding signal was 0.00606 KA relative to UGCAUGU.
